Experimental data reported in patent publication US20090143279A1 (priority 2007, published 2009).

system: cellular ATP levels; details: 20 μM; composite Z-score vs DMSO

Row | Molecule | ATP
1 | CC(C)C[C@H]1C(=O)N2CCC[C@H]2[C@]2(O)O[C@](NC(=O)[C@@H]3C=C4c5cccc6[nH]c(Br)c(c56)C[C@H]4N(C)C3)(C(C)C)C(=O)N12 [bromocriptine] | 0.331
2 | CC1(C)S[C@@H]2[C@H](NC(=O)COc3ccccc3)C(=O)N2[C@H]1C(=O)O [penicillin V] | 0.818
3 | O=C(O)c1cccnc1C(=O)O [quinolinic acid] | 0.107
4 | CCCN(CCC)C(=O)C(CCC(=O)O)NC(=O)c1ccccc1 (stereo not drawn) [proglumide] | 1.059

same assay, conditions: Conc 13.32 μM; normalized score vs mock-treated (DMSO) wells

Row | Molecule | ATP (composite Z-score)
5 | CC(=O)Oc1ccccc1C(=O)Oc1ccccc1C(=O)O [acetylsalicylsalicylic acid] | 1.663

same assay, conditions: Conc 20 μM; normalized score vs mock-treated (DMSO) wells

Row | Molecule | ATP (composite Z-score)
6 | COc1ccc(-c2coc3cc(O)cc(O)c3c2=O)cc1 [biochanin A] | 0.278
7 | CC1(C)C=CC(=O)[C@@]2(C)C1CC(=O)[C@]1(C)C2CC[C@@]2(C)[C@H](c3ccoc3)OC(=O)C3OC321 (stereo partly drawn) [deacetoxy-7-oxisogedunin] | −0.566
8 | beta-escin | −5.858
9 | COC1=C(OC)C(=O)C(C/C=C(\C)CC/C=C(\C)CC/C=C(\C)CC/C=C(\C)CC/C=C(\C)CC/C=C(\C)CC/C=C(\C)CC/C=C(\C)CC/C=C(\C)CCC=C(C)C)=C(C)C1=O [coenzyme Q10] | 0.525
10 | CCCc1occc(=O)c1CCO [2-propyl-3-hydroxyethylenepyran-4-one] | 0.499
11 | CC[C@@]1(O)C(=O)OCc2c1cc1n(c2=O)Cc2cc3cc(O)ccc3nc2-1 [10-hydroxycamtothecin] | 0.468
12 | CCOc1ccc(C(=O)C2=C(O)C(OC)C(O)(OC)C=C2)cc1 (stereo not drawn) | 0.418
13 | CCC(N)C(O)c1ccc(O)c(O)c1 (stereo not drawn) [ethylnorepinephrine] | 0.711

same assay, conditions: composite Z-score vs DMSO wells; Conc 20 μM

Row | Molecule | ATP
14 | C=C(C)[C@@H]1[C@H]2OC(=O)[C@@H]1[C@]1(O)C[C@H]3O[C@]34C(=O)O[C@H]2[C@]14C [picrotoxinin] | 0.141
15 | C[C@]12C=CC(=O)C=C1CC[C@@H]1[C@@H]2C(=O)C[C@@]2(C)[C@H]1CC[C@]2(O)C(=O)CO [prednisone] | 0.376
16 | CNCCc1ccccn1 [betahistine] | 1.977
17 | estrone hemisuccinate | 0.242

same assay, conditions: composite Z-score vs DMSO; Conc 11.16 μM

Row | Molecule | ATP
18 | C[C@]12C=CC(=O)C=C1CC[C@@H]1[C@@H]2C(=O)C[C@@]2(C)[C@H]1CC[C@]2(O)C(=O)CO [prednisone] | 0.358

same assay, conditions: composite Z-score vs DMSO; Conc 20 μM

Row | Molecule | ATP
19 | C=C[C@H]1C[N@@]2CC[C@H]1C[C@@H]2[C@@H](O)c1ccnc2ccc(OC)cc12 [quinidine] | 0.901
20 | CO/N=C(\C(=O)N[C@@H]1C(=O)N2C(C(=O)O)=C(COC(N)=O)CS[C@H]12)c1ccco1 [cefuroxime] | 0.476
21 | C[C@H]1CC[C@]2(NC1)O[C@H]1C[C@H]3[C@@H]4CC[C@H]5C[C@@H](O[C@@H]6O[C@H](CO)[C@H](O[C@@H]7O[C@H](CO)[C@@H](O)[C@H](O[C@@H]8OC[C@@H](O)[C@H](O)[C@H]8O)[C@H]7O[C@@H]7O[C@H](CO)[C@@H](O)[C@H](O)[C@H]7O)[C@H](O)[C@H]6O)CC[C@]5(C)[C@H]4CC[C@]3(C)[C@H]1[C@@H]2C [tomatine] | −5.117
22 | COc1cc2c(c(OC)c1OC)-c1ccc(=O)c(O)cc1[C@@H](NC(C)=O)CC2 [colchiceine] | −0.848
23 | C[C@@H]1[C@H](O)[C@@H](C)/C=C/C=C/CC/C=C/C=C/C=C/C=C/C(O[C@H]2O[C@H](C)[C@@H](O)[C@H](N)[C@@H]2O)CC2O[C@](O)(CC(O)C(O)CCC(O)CC(O)CC(O)CC(=O)O[C@H]1C)CC(O)C2C(=O)O (stereo partly drawn) [nystatin] | 0.843

same assay, conditions: composite Z-score vs mock-treated (DMSO) wells; Conc 20 μM

Row | Molecule | ATP
24 | C=C1[C@@H]2CC[C@@]3(C)[C@H](c4ccoc4)OC(=O)C[C@]13O[C@H]1CC(=O)C(C)(C)[C@H](CC(=O)OC)[C@]12C [angolensic acid, methyl ester] | −0.097
25 | C=C1C2CC[C@@]3(C)[C@H](c4ccoc4)OC(=O)C[C@]13O[C@H]1CC(=O)C(C)(C)[C@H](C(O)C(=O)OC)[C@@]21C (stereo partly drawn) [6-hydroxyangolensic acid methyl ester] | −0.193
26 | Cc1cc(=O)c2c(O)cc(O)c(C)c2o1 [isoeugenitol] | 0.995

same assay, conditions: normalized composite Z-score vs mock-treated (DMSO) wells; Conc 20 μM

Row | Molecule | ATP
27 | O=C(Oc1cc(O)cc2c1C[C@@H](OC(=O)c1cc(O)c(O)c(O)c1)[C@@H](c1cc(O)c(O)c(O)c1)O2)c1cc(O)c(O)c(O)c1 [epigallocatechin 3,5-digallate] | 1.156
28 | CC(=O)Oc1ccc(/C=C/c2cc(OC(C)=O)cc(OC(C)=O)c2)cc1 [triacetylresveratrol] | −1.727
29 | COc1cccc2c1CCC1CC(=O)CCC21C (stereo not drawn) | 2.441
30 | 3-nor-3-oxopanasinsan-6-ol | 0.158
31 | C=C1CCC(=O)C(C)CCC2C1CC2(C)C (stereo not drawn) [dihydrocaryophyllen-5-one] | 0.364
32 | C=C1CC[C@H]2O[C@]2(C)CC[C@@H]2[C@@H]1CC2(C)C [carylophyllene oxide] | 0.604
33 | COC1CC(C)C2OC2CC(C)C2CC(C)(C)C12 (stereo not drawn) | 0.358
34 | Cc1cc(OC(=O)c2c(C)cc(OC(=O)c3c(C)cc(O)cc3O)cc2O)cc(O)c1C(=O)O [gyrophoric acid] | 0.125
35 | COc1cc2c(cc1OC)[C@@H]1C(=O)c3ccc4oc(C(C)C)cc4c3O[C@@H]1CO2 [isorotenone, reference compound] | −5.273
36 | CC(=O)Oc1cc(OC(C)=O)c2c(c1)O[C@H](c1ccc(OC(C)=O)c(OC(C)=O)c1)[C@@H](OC(C)=O)C2 [catechin pentaacetate] | 1.098
